T1: RBFOX1 RRM (Homo sapiens, UniProt Q9NWB1 109-208)
T1 sequence: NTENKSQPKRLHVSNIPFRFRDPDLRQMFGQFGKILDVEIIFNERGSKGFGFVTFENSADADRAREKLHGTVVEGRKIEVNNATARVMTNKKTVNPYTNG

B1: UUUUGUA (DNA:RNA)
RNA: GGGAGACCGGAAUUCAGAUUGUCCUUUUGUAUUAAAUCCCGUCGUAGCCACCA
DNA 1: CAATCTGAATTCCGGTCTCCC
DNA 2: TGGTGGCTACGACGGGATT
B2: GAUUAGG (DNA:RNA)
RNA: B1 RNA with U25G, U26A, G29A, U30G, A31G
DNA 1: CAATCTGAATTCCGGTCTCCC
DNA 2: TGGTGGCTACGACGGGATT
B3: UGCGCCA (DNA:RNA)
RNA: B1 RNA with U26G, U27C, U28G, G29C, U30C
DNA 1: CAATCTGAATTCCGGTCTCCC
DNA 2: TGGTGGCTACGACGGGATT
B4: CUCCCUA (DNA:RNA)
RNA: B1 RNA with U25C, U27C, U28C, G29C
DNA 1: CAATCTGAATTCCGGTCTCCC
DNA 2: TGGTGGCTACGACGGGATT
B5: UGUUUCG (DNA:RNA)
RNA: B1 RNA with U26G, G29U, U30C, A31G
DNA 1: CAATCTGAATTCCGGTCTCCC
DNA 2: TGGTGGCTACGACGGGATT
B6: CUGUUUG (DNA:RNA)
RNA: B1 RNA with U25C, U27G, G29U, A31G
DNA 1: CAATCTGAATTCCGGTCTCCC
DNA 2: TGGTGGCTACGACGGGATT
B7: CCCAUUU (DNA:RNA)
RNA: B1 RNA with U25C, U26C, U27C, U28A, G29U, A31U
DNA 1: CAATCTGAATTCCGGTCTCCC
DNA 2: TGGTGGCTACGACGGGATT
B8: AUUUUCA (DNA:RNA)
RNA: B1 RNA with U25A, G29U, U30C
DNA 1: CAATCTGAATTCCGGTCTCCC
DNA 2: TGGTGGCTACGACGGGATT
B9: ACCCUAC (DNA:RNA)
RNA: GGGAGACCGGAAUUCAGAUUGUCCACCCUACUUAAAUCCCGUCGUAGCCACCA
DNA 1: CAATCTGAATTCCGGTCTCCC
DNA 2: TGGTGGCTACGACGGGATT
B10: CAGUAGU (DNA:RNA)
RNA: B1 RNA with U25C, U26A, U27G, G29A, U30G, A31U
DNA 1: CAATCTGAATTCCGGTCTCCC
DNA 2: TGGTGGCTACGACGGGATT
B11: AAUAGUA (DNA:RNA)
RNA: B1 RNA with U25A, U26A, U28A
DNA 1: CAATCTGAATTCCGGTCTCCC
DNA 2: TGGTGGCTACGACGGGATT
B12: GUCAAAG (DNA:RNA)
RNA: B9 RNA with A25G, C26U, C28A, U29A, C31G
DNA 1: CAATCTGAATTCCGGTCTCCC
DNA 2: TGGTGGCTACGACGGGATT
B13: UACUUAC (DNA:RNA)
RNA: B9 RNA with A25U, C26A, C28U
DNA 1: CAATCTGAATTCCGGTCTCCC
DNA 2: TGGTGGCTACGACGGGATT
B14: UUGAAUC (DNA:RNA)
RNA: B1 RNA with U27G, U28A, G29A, A31C
DNA 1: CAATCTGAATTCCGGTCTCCC
DNA 2: TGGTGGCTACGACGGGATT
B15: CCUCCUA (DNA:RNA)
RNA: B1 RNA with U25C, U26C, U28C, G29C
DNA 1: CAATCTGAATTCCGGTCTCCC
DNA 2: TGGTGGCTACGACGGGATT
B16: UCGACGA (DNA:RNA)
RNA: B1 RNA with U26C, U27G, U28A, G29C, U30G
DNA 1: CAATCTGAATTCCGGTCTCCC
DNA 2: TGGTGGCTACGACGGGATT
B17: GGAGCCA (DNA:RNA)
RNA: B1 RNA with U25G, U26G, U27A, U28G, G29C, U30C
DNA 1: CAATCTGAATTCCGGTCTCCC
DNA 2: TGGTGGCTACGACGGGATT
B18: GUUGUAA (DNA:RNA)
RNA: B1 RNA with U25G, U28G, G29U, U30A
DNA 1: CAATCTGAATTCCGGTCTCCC
DNA 2: TGGTGGCTACGACGGGATT
B19: ACAUGCA (DNA:RNA)
RNA: B1 RNA with U25A, U26C, U27A, U30C
DNA 1: CAATCTGAATTCCGGTCTCCC
DNA 2: TGGTGGCTACGACGGGATT
B20: ACAGUGC (DNA:RNA)
RNA: B9 RNA with C27A, C28G, A30G
DNA 1: CAATCTGAATTCCGGTCTCCC
DNA 2: TGGTGGCTACGACGGGATT
B21: GUACCUU (DNA:RNA)
RNA: B1 RNA with U25G, U27A, U28C, G29C, A31U
DNA 1: CAATCTGAATTCCGGTCTCCC
DNA 2: TGGTGGCTACGACGGGATT
B22: CAUUCCG (DNA:RNA)
RNA: B1 RNA with U25C, U26A, G29C, U30C, A31G
DNA 1: CAATCTGAATTCCGGTCTCCC
DNA 2: TGGTGGCTACGACGGGATT
B23: ACUUCAU (DNA:RNA)
RNA: B9 RNA with C27U, C28U, U29C, C31U
DNA 1: CAATCTGAATTCCGGTCTCCC
DNA 2: TGGTGGCTACGACGGGATT
B24: CCAAUUG (DNA:RNA)
RNA: B9 RNA with A25C, C27A, C28A, A30U, C31G
DNA 1: CAATCTGAATTCCGGTCTCCC
DNA 2: TGGTGGCTACGACGGGATT
B25: UGUGCUC (DNA:RNA)
RNA: B1 RNA with U26G, U28G, G29C, A31C
DNA 1: CAATCTGAATTCCGGTCTCCC
DNA 2: TGGTGGCTACGACGGGATT
B26: GAUAGCU (DNA:RNA)
RNA: B1 RNA with U25G, U26A, U28A, U30C, A31U
DNA 1: CAATCTGAATTCCGGTCTCCC
DNA 2: TGGTGGCTACGACGGGATT
B27: AAAGCAU (DNA:RNA)
RNA: B9 RNA with C26A, C27A, C28G, U29C, C31U
DNA 1: CAATCTGAATTCCGGTCTCCC
DNA 2: TGGTGGCTACGACGGGATT
B28: ACAUGCG (DNA:RNA)
RNA: B9 RNA with C27A, C28U, U29G, A30C, C31G
DNA 1: CAATCTGAATTCCGGTCTCCC
DNA 2: TGGTGGCTACGACGGGATT
B29: GGUGGGC (DNA:RNA)
RNA: B1 RNA with U25G, U26G, U28G, U30G, A31C
DNA 1: CAATCTGAATTCCGGTCTCCC
DNA 2: TGGTGGCTACGACGGGATT
B30: UAGGUGC (DNA:RNA)
RNA: B9 RNA with A25U, C26A, C27G, C28G, A30G
DNA 1: CAATCTGAATTCCGGTCTCCC
DNA 2: TGGTGGCTACGACGGGATT
B31: AUUUACG (DNA:RNA)
RNA: B1 RNA with U25A, G29A, U30C, A31G
DNA 1: CAATCTGAATTCCGGTCTCCC
DNA 2: TGGTGGCTACGACGGGATT

Substitutions are numbered along the chain they refer to; changes in the protein carry UniProt numbers. Some of the results follow.

In this experiment the target is T1, RBFOX1 RRM. Nature of the experiment: EMSA; HiTS-Eq, 1 nM pool, 10 min; buffer printed only for the single-RNA assays: 10 mM Tris pH 7.5, 150 mM NaCl, 3.4 mM EDTA, 0.001% NP-40, 30 C. The following applies: tags: His6 N-terminal (pET28a); label: 5' 32P. In short, it runs like this: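 Relative association constants, normalised to the cognate motif, were derived by comparing read counts of each RNA species with those of the control reaction. The RNA sequenced was the free fraction, separated by 8% native PAGE after a 10 min equilibration in 50 µL of 1 nM 5′-radiolabelled RNA (7 randomized nucleotides) with increasing concentrations of purified wild-type or mutant RbFox RRM.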
On the technique in general: A gel shift assay detects complexes by their altered migration in electrophoresis.
In the case of B1, the binding signal is 0.0135 KA relative to UGCAUGU.
With B2 the figure was 0.0123 KA relative to UGCAUGU; with B3, 0.0124 KA relative to UGCAUGU.
The value for B4 was 0.00022 KA relative to UGCAUGU; that for B5 was 0.0238 KA relative to UGCAUGU.
As to B6, the binding signal was 0.0332 KA relative to UGCAUGU.
With B7 the figure was 0.000308 KA relative to UGCAUGU; with B8, 0.00433 KA relative to UGCAUGU; with B9, 0.000575 KA relative to UGCAUGU.
On to B10, for which the binding signal is 0.0072 KA relative to UGCAUGU.
The value for B11 was 0.0044 KA relative to UGCAUGU.
The value for B12 was 0.00861 KA relative to UGCAUGU.
For the molecule B13, the binding signal is 0.00405 KA relative to UGCAUGU.
Consider B14, for which the binding signal was 0.0179 KA relative to UGCAUGU.
With B15 the figure was 0.00311 KA relative to UGCAUGU.
The value for B16 was 0.00715 KA relative to UGCAUGU; that for B17 was 0.00985 KA relative to UGCAUGU.
With B18 the figure was 0.0121 KA relative to UGCAUGU; with B19, 0.00884 KA relative to UGCAUGU.
On to B20, for which the binding signal was 0.00827 KA relative to UGCAUGU.
With B21 the figure was 0.00362 KA relative to UGCAUGU; with B22, 0.0056 KA relative to UGCAUGU.
With B23, the binding signal was 0.000497 KA relative to UGCAUGU.
Regarding B24, the binding signal was 0.00326 KA relative to UGCAUGU.
As to B25, the binding signal is 0.0183 KA relative to UGCAUGU.
Take B26: the binding signal is 0.0111 KA relative to UGCAUGU.
Regarding B27, the binding signal is 0.00752 KA relative to UGCAUGU.
With B28 the figure was 0.00768 KA relative to UGCAUGU.
The value for B29 was 0.00822 KA relative to UGCAUGU; that for B30 was 0.0228 KA relative to UGCAUGU; that for B31 was 0.00681 KA relative to UGCAUGU.

(Values after article PMC9911399, “Two distinct binding modes provide the RNA-binding protein RbFox with extraordinary sequence specificity”.)
